Experimental findings from PubChem BioAssay AID1346428 (National Center for Advancing Translational Sciences (NCATS), 2018) are described below.

Screen size: about 48,000 compounds; about 1,200 (2.5%) were called active. Roughly 2% stayed inconclusive and do not appear here.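 The calls were made as follows: active = activation of at least 60% and not above a set upper limit (about 1 call in 100 departs from these limits); inconclusive = activation of 40% to 60%, or above that upper limit; inactive = activation under 40%.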 The list shows a part of the results.

For the experiment, the target named is Probable G-protein coupled receptor 32 (Homo sapiens) (UniProt O75388). Description: qHTS for Agonists of Human Resolvin D1 Receptor DRV1. Also: 0% is about no effect. As to conditions: CHO-K1 GPR32 beta-arrestin PathHunter luminescence, 90 min; at 76.9 µM; stronger effect = higher value; zero percent set by DMSO-only wells. In outline: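 Readings come from a cell-based beta-arrestin complementation format: CHO-K1 GPR32 stable cells (2,500/well) treated 90 min with compounds, then beta-Gal substrate added for 1 h before chemiluminescence imaging.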
Sequence of UniProt O75388 (O75388 whole entry, looked up): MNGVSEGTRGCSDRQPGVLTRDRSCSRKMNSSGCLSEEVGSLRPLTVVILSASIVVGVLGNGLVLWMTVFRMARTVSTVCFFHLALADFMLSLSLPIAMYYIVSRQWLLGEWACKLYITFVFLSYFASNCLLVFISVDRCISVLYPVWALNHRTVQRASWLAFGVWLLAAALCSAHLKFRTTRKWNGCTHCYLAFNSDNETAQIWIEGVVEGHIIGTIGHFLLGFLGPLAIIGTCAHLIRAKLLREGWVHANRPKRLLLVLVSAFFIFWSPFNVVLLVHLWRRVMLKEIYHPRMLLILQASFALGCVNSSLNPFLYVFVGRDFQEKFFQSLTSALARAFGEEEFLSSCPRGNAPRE
On the technique in general: qHTS replaces the single test concentration by a dilution series.
On to `Cc1ccc2oc(-c3cc(NC(=O)c4ccco4)ccc3Cl)nc2c1`, for which the activation was inactive: 42.5%.

In the case of `CSc1ncc(C(=O)Nc2ccc(F)cc2F)c(-c2ccccc2)n1`, the activation is inactive: 43.5%.

On to `CCCC1=Nc2cc(C(=O)NCCc3ccc(OC)cc3OC)ccc2Sc2ccccc21`, for which the activation was inactive: -4.26%.

With `CCOc1ccc(OCC)c(NC(=O)CCC(=O)N2CCOc3ccccc32)c1`, the activation was inactive: -23.4%.

In the case of `COCCCNc1nc2c(S(=O)(=O)c3ccc(C)c(C)c3)nnn2c2ccc(Cl)cc12`, the activation is inactive: -8.73%.

`Cc1ccc(NC(=O)CN2C(=O)CCn3nc(-c4cccn4C)cc32)cc1`: the activation is inactive: -0.458%.

Regarding `Cc1cn(C)c(CC(=O)NCc2ccccc2Cl)c1C(=O)O`, the activation is inactive: -8.95%.

Turning to `Cc1ccc(CNC(=O)c2nn(C)c3c2CS(=O)(=O)c2ccccc2-3)cc1`, the activation was inactive: -7.7%.

For the compound `CCOC(=O)c1ccc(N2C(=O)c3n[nH]c(-c4ccco4)c3C2c2ccc(O)c(OC)c2)cc1` (stereo not drawn), the activation is inactive: 6.52%.

In the case of `CCN(CC)CCNC(=O)c1nn(C)c2c1CS(=O)(=O)c1ccccc1-2`, the activation is inactive: 2.98%.

As for `CCC(=O)N1c2ccccc2CC1C(=O)NCCc1ccc(C)cc1` (stereo not drawn), the activation is inactive: -7.84%.

Turning to `CCC(C)OC(=O)/C(C#N)=C\c1ccc(-c2ccccc2Cl)o1` (stereo not drawn), the activation is inactive: 3.14%.

Turning to `O=C(Nc1nc2nc(-c3ccccc3)cc(=O)n2[nH]1)c1ccc(Cl)cc1`, the activation is inactive: 7.05%.

Consider `CNC(=O)COc1ccc(NC(=O)CCn2nc(-c3ccc(C)cc3)c3ccccc3c2=O)cc1`, for which the activation was inactive: -5.79%.

On to `C=CC(=O)c1ccc(CCCCCC)cc1`, for which the activation was inactive: 11.4%.

With `COc1ccc(-n2nc(C(=O)N3CCN(c4cccc(C)c4C)CC3)c3c4ccccc4n(C)c3c2=O)cc1`, the activation was inactive: -9.1%.

For the compound `O=C(CSCc1nc2cccnc2n1C1CCCCC1)NCc1cccc(Cl)c1`, the activation was inactive: -25.8%.

For the compound `COc1ccc(NC(=O)c2sc3nc4n(c(=O)c3c2C)CCC4)cc1Cl`, the activation was inactive: -9.17%.

As to `O=C1c2[nH]nc(-c3ccc(Br)cc3)c2C(c2cccc(O)c2)N1c1ccc(Cl)cc1` (stereo not drawn), the activation is active: 95.7%.

With `Cc1ccc2scc(N3CCN(c4ccc(F)cc4)CC3)c(=O)c2c1`, the activation was inactive: -43.7%.

In the case of `COc1ccc(-n2c3c(cc(-c4nc(-c5ccc(Cl)cc5)cs4)c2=O)C(=O)CC(C)(C)C3)cc1`, the activation is inactive: 4.79%.

For the compound `COc1cc(C)ccc1OCCn1c(-c2ccc(Cl)cc2)nc2ccccc2c1=O`, the activation was inactive: 5.94%.

For `COc1ccc2c(c1)sc1ncc(C(=O)NCc3cccc(Cl)c3)c(=O)n12`, the activation was inactive: -10.9%.

Consider `COc1ccc(CCNC(=O)c2ccc3c(c2)N(Cc2cccc(Cl)c2)C(=O)CS3)cc1OC`, for which the activation is inactive: -0.96%.

For the compound `COc1ccc(C2c3c(n(C)c4ccccc34)C(=O)N2CC(=O)Nc2ccccc2F)cc1` (stereo not drawn), the activation was inactive: -27.7%.

For `O=C(NCc1ccc(Cl)cc1)c1cnc2sc(N3CCCC3)nn2c1=O`, the activation is inactive: 3.98%.

Consider `CCOc1ccc(C(c2c(O)cc(C)n(CCOC)c2=O)N2CCC(C)CC2)cc1` (stereo not drawn), for which the activation was inactive: -9.77%.

Turning to `COc1ccc(Cl)cc1NC(=O)CN(c1cccc(C)c1C)S(=O)(=O)c1ccccc1`, the activation is inactive: -17.4%.

As for `O=C(CC1N=C2c3ccccc3N=C(SCc3ccccc3F)N2C1=O)NCc1ccc2c(c1)OCO2` (stereo not drawn), the activation was inactive: 13.9%.

On to `O=C(Cc1ccc(NC(=O)N2CCSc3ncccc32)cc1)NCCc1ccccc1`, for which the activation is inactive: -0.533%.

Consider `Cc1ccc(CCNC(=O)c2ccc(CSCc3ccccc3Cl)o2)cc1`, for which the activation was inactive: -16.4%.

As to `Cc1ccc(N(C)S(=O)(=O)c2nnc(NC(=O)C3CCCCC3)s2)cc1`, the activation was inactive: -5.85%.

`CCc1ccc(CNC(=O)c2cc(-c3ccc(Cl)s3)nc3ccccc23)cc1`: the activation is inactive: -10.2%.

In the case of `CCOC(=O)N1CCc2c(sc3c2c(=O)n(-c2ccc(CC)cc2)c(=O)n3CC(=O)Nc2ccc(C)cc2)C1`, the activation is inactive: -14.2%.

`CCOc1ccc(CNC(=O)c2ccc3c(c2)c(C)c(C)n3Cc2ccc(Cl)cc2)cc1`: the activation was inactive: -20.6%.

Turning to `CN(C)S(=O)(=O)n1cc(/C=C(\NC(=O)c2ccccc2)C(=O)NCCCn2ccnc2)c2ccccc21`, the activation is inactive: -0.041%.

Consider `O=C(NCCOCCn1c(=O)oc2ccccc21)Nc1ccc(Cl)cc1`, for which the activation is inactive: 6.98%.

Consider `Cc1ccccc1NC(=O)c1c(NC(=O)Cc2ccccc2)sc2c1CCC2`, for which the activation was inactive: -11.8%.

For the compound `CCNc1ccc(-c2nc(-c3ccco3)no2)cc1[N+](=O)[O-]`, the activation was inactive: -6.51%.

Take `Cc1cc(C)c(NC(=O)c2cc(S(=O)(=O)N3CCN(c4ccccc4F)CC3)ccc2F)c(C)c1`: the activation was inactive: -1.78%.

Turning to `COc1ccc(N2CC(NC(=O)CCc3ccccc3)CC2=O)cc1OC` (stereo not drawn), the activation is inactive: -1.02%.

Regarding `Cc1ccc2oc(=O)n(CCCOc3ccc(Cl)cc3)c2c1`, the activation is inactive: -5.65%.

On to `CCOC(=O)c1cc(-c2ccc(C)cc2)n(CCC(=O)Nc2ccc(C(C)C)cc2)c1C`, for which the activation is inactive: -26.2%.

For `CN(C)S(=O)(=O)c1ccc(C(=O)NC2CC(=O)N(c3ccc4c(c3)OCCO4)C2)cc1` (stereo not drawn), the activation was inactive: 6.39%.

In the case of `Cc1ccc(S(=O)(=O)N(CCc2ccccc2)CC(=O)Nc2cc(C)ccc2C)cc1`, the activation is inactive: -1.26%.

With `Cc1cccc(NC(=O)CS(=O)(=O)c2nc(-c3ccccc3)cn2-c2cccc(Cl)c2)c1C`, the activation is inactive: -16.8%.

On to `COc1cc(C2C(C(=O)Nc3ccc(C)cc3C)=C(C)Nc3nc4ccccc4n32)cc(OC)c1OC` (stereo not drawn), for which the activation was inactive: -2.5%.

Regarding `Cn1cc(C(=O)NCc2ccccc2)c(=O)c2cc(S(=O)(=O)N3CCOCC3)ccc21`, the activation was inactive: -8.92%.

In the case of `Cc1cccc(NC(=O)Cn2nnc(C(=O)Nc3ccccc3Br)c2N)c1C`, the activation is inactive: -4.79%.

In the case of `COc1cccc(-c2nc(CS(=O)(=O)CC(=O)Nc3c(C)cc(C)cc3C)c(C)o2)c1`, the activation is inactive: -8.37%.

Consider `COc1cccc(N2CCN(C(=O)C3CCN(S(=O)(=O)c4c(C)noc4C)CC3)CC2)c1`, for which the activation is inactive: -9.9%.

In the case of `CCOc1ccccc1NC(=O)c1nc2nc(C)cc(C(F)F)n2n1`, the activation was inactive: -2.69%.

In the case of `O=C(NC1CC(=O)N(c2ccc(Cl)cc2)C1)c1ccc2c(c1)OCO2` (stereo not drawn), the activation was inactive: 2.28%.

Take `CSc1ccc(CCNC(=O)CN2C(=O)c3cccnc3Oc3ccc(C)cc32)cc1`: the activation is inactive: -15.8%.

Consider `N=c1n(CCN2CCCCC2)c2ccccc2n1CC(O)COc1ccc(Cl)cc1Cl` (stereo not drawn), for which the activation is active: 69.6%.

As for `Cc1cc(NC(=O)N(C)CCc2c(C)nn(C)c2C)ccc1Br`, the activation is active: 64.7%.

As to `CCCN1CCN(CCCNC(=O)Cn2nc(CC)n3c(cc4occc43)c2=O)CC1`, the activation was inactive: 4.99%.

With `Cc1ccc2c(=O)cc(C(=O)N(Cc3ccc(N(C)C)cc3)C3CCS(=O)(=O)C3)oc2c1` (stereo not drawn), the activation is inactive: -14.6%.

Consider `COc1ccc(Cn2c(SCc3ccc(C(=O)NCc4cccs4)cc3)nc3cccnc32)cc1`, for which the activation was inactive: -19.3%.

As to `CC1(C)O[C@H]2[C@@H](O1)[C@@H](C(=O)Nc1ccc(F)c(F)c1)O[C@@H]1OC(C)(C)O[C@@H]12`, the activation was inactive: -3.59%.

Regarding `CCc1cccc(C)c1NC(=O)CSc1nc2ccccc2nc1N1CCOCC1`, the activation was inactive: -6.16%.

In the case of `Cc1cc(F)ccc1NS(=O)(=O)c1c(C)nc2scc(C)n2c1=O`, the activation was inactive: -2.04%.

Regarding `COc1ccccc1CN1C(=O)CN(C2CCCCCC2)C(=O)C1c1ccc(C)cc1` (stereo not drawn), the activation is inactive: -15.4%.

Take `CC1=C(c2ccc(C(C)C)cc2)S(=O)(=O)NC1=NCc1ccccc1Br`: the activation is inactive: -6.96%.

As for `CCOC(=O)c1c(C)oc2ccc(N(C(=O)c3ccncc3)S(=O)(=O)c3ccc(Br)cc3)cc12`, the activation was inactive: -2.03%.

With `CCOc1ccc(N(CC(=O)NCc2ccc(C)cc2)S(=O)(=O)c2c(C)noc2C)cc1`, the activation is inactive: -21.8%.

On to `O=C(c1ccc(CSc2nc3ccncc3n2Cc2cccc(F)c2)cc1)N1CCCCC1`, for which the activation was inactive: 38%.

As for `Cc1cccc(NC(=O)Cn2c(=O)nc(-c3ccccc3)c3ccccc32)c1C`, the activation is inactive: 2.07%.

On to `CNC(=O)C1CCC(Cn2c(=O)c3sccc3n(CC(=O)Nc3ccc(C)c(F)c3)c2=O)CC1` (stereo not drawn), for which the activation was inactive: -17.6%.

In the case of `CCOc1cc2[nH]c(=O)n(CCCC(=O)N3CCN(c4ccc(OC)cc4)CC3)c(=O)c2cc1OCC`, the activation was inactive: -7.03%.

For the compound `CCOC(=O)c1c(C)[nH]c(C)c1S(=O)(=O)N1CCC(C(=O)Nc2ccc(C)cn2)CC1`, the activation was inactive: -7.72%.

Consider `CCOc1ccc(CCNC(=O)Cn2ncc3c(=O)oc4ccc(C)cc4c32)cc1`, for which the activation is inactive: -7.7%.

Take `CCn1c2ccccc2c2cc(NC(=O)COc3cccc(C)c3)ccc21`: the activation was inactive: 24%.

In the case of `COc1ccc(C)cc1NC(=O)C1CCCN(S(=O)(=O)c2ccc3[nH]c(=O)ccc3c2)C1` (stereo not drawn), the activation was inactive: -18.7%.

Consider `COc1cc(NC(=O)CN2C(=O)CN(C)C(=O)c3ccccc32)cc(OC)c1OC`, for which the activation was inactive: 8.88%.

For the compound `COc1ccc(OC)c(NS(=O)(=O)c2ccc3[nH]c4c(c3c2)CCCCC4)c1`, the activation is inactive: 2.19%.

On to `CCCCN1CC(c2nc3ccccc3n2CCCCOc2ccc(C)c(C)c2)CC1=O` (stereo not drawn), for which the activation was inactive: 49%.

Turning to `Cc1ccc(F)c(NC(=O)Nc2ccc3snnc3c2)c1`, the activation is active: 68.1%.

For the compound `O=C1c2[nH]nc(-c3ccccc3O)c2C(c2cccc(Cl)c2)N1Cc1cccnc1` (stereo not drawn), the activation was inactive: -16.9%.

Regarding `CCOc1ccc(CCNC(=O)c2cn(CC)c3ccc(S(=O)(=O)N4CCCCCC4)cc3c2=O)cc1OCC`, the activation is inactive: -21.3%.

For `CC(=O)N1CCCc2cc(S(=O)(=O)N(C)CC(=O)Nc3cccc(C)c3C)ccc21`, the activation was inactive: 5.25%.

With `Cc1cccc(CNC(=O)Cn2ccc3cc(S(=O)(=O)N4CCCC4)ccc32)c1`, the activation is inactive: 2.08%.

As to `O=C(NCCN1CCN(c2cccc(Cl)c2)CC1)C1COc2ccccc2C1` (stereo not drawn), the activation is inactive: -24.3%.
